# Results from the supplement of paper PMC8728848.
# The list shows a part of the results.
# B1: SP16664D-bth-476-27-476 (Bacteroides thetaiotaomicron) (protein)
# chain: DDLEVGKNIDESAYSGIYENNAYLRDGKSNLVSKVVELHGETYATTVKMGLSKTPNTATSAKVKIDAAYLETYNKAHNTDFALYPQDLVTFANEGILTVNANTKSAEVEMTIRAGEGLQEDKTYAIPVAISDQSSDITIKDEDAKHCIYLVKDMRNAGDAYKGEGVMQGYLFFEVNDVNPLNTLSFQLENGKLLWDVVVLFAANINYDAEAGRPRVQCNPNVQYLLDNNETLLQPLRRRGVKVLLGLLGNHDITGLAQLSEQGAKDFAREVAQYCKAYNLDGVNYDDEYSNSPDLSNPSLTNPSTAAAARLCYETKQAMPDKLVTVFDWGQMYGVATVDGVDAKEWIDIVVANYGSAAYPIGQMTKKQCSGISMEFNLGGGGSLSASKAQSMIDGGYGWFMGFAPSPAKYGSVFSRLQGGGEVLYGSNVAAPTIFYKKNDPTPYKYPDDL
# Experiments:
# Assay in all cases: glycan array binding signal (z-score within array); higher = stronger binding
# Settings in all cases: glycan notation: IUPAC condensed, linker removed
# [1] = target: GlcNAc(b1-3)Gal(b1-4)GlcNAc(b1-3)Gal(b1-4)GlcNAc(b1-3)GalNAc
# Procedure, shortened: (§1)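 The Consortium for Functional Glycomics database supplied 3228 glycan arrays, of which those lacking an available protein sequence were dropped. The binding signal, a within-array Z-score, was averaged across arrays of the same protein sequence and across linkers. Negative scores can be read as non-binding.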
# [2] = target: GlcNAc(b1-3)Gal(b1-4)GlcNAc(b1-3)GalNAc
# Procedure, shortened: as §1
# [3] = target: GlcNAc(b1-3)Gal(b1-4)GlcNAc(b1-3)[GlcNAc(b1-3)Gal(b1-4)GlcNAc(b1-3)]GalNAc
# Procedure, shortened: as §1
# [4] = target: GlcNAc(b1-3)Gal(b1-4)GlcNAc(b1-6)[Gal(b1-3)]GalNAc
# Procedure, shortened: as §1
# [5] = target: GlcNAc(b1-3)Gal(b1-4)GlcNAc(b1-6)[GlcNAc(b1-3)Gal(b1-3)]GalNAc
# Procedure, shortened: as §1
# [6] = target: GlcNAc(b1-3)Gal(b1-4)GlcNAc(b1-6)[GlcNAc(b1-3)]Gal(b1-4)GlcNAc
# Procedure, shortened: as §1
# GlcNAc(b1-3)GalNAc = target: GlcNAc(b1-3)GalNAc
# Procedure, shortened: as §1
# GlcNAc(b1-3)Man = target: GlcNAc(b1-3)Man
# Procedure, shortened: as §1
# [7] = target: GlcNAc(b1-3)[GlcNAc(b1-4)][GlcNAc(b1-6)]GlcNAc
# Procedure, shortened: as §1
# [8] = target: GlcNAc(b1-3)[GlcNAc(b1-6)]Gal(b1-4)GlcNAc
# Procedure, shortened: as §1
# [9] = target: GlcNAc(b1-3)[GlcNAc(b1-6)]GalNAc
# Procedure, shortened: as §1
# [10] = target: GlcNAc(b1-4)Gal(b1-4)GlcNAc
# Procedure, shortened: as §1
# GlcNAc(b1-4)GlcNAc = target: GlcNAc(b1-4)GlcNAc
# Procedure, shortened: as §1
# [11] = target: GlcNAc(b1-4)GlcNAc(b1-4)GlcNAc
# Procedure, shortened: as §1
# [12] = target: GlcNAc(b1-4)GlcNAc(b1-4)GlcNAc(b1-4)GlcNAc(b1-4)GlcNAc
# Procedure, shortened: as §1
# [13] = target: GlcNAc(b1-4)GlcNAc(b1-4)GlcNAc(b1-4)GlcNAc(b1-4)GlcNAc(b1-4)GlcNAc
# Procedure, shortened: as §1
# [14] = target: GlcNAc(b1-4)[GlcNAc(b1-6)]GalNAc
# Procedure, shortened: as §1
# [15] = target: GlcNAc(b1-6)Gal(b1-4)GlcNAc
# Procedure, shortened: as §1
# GlcNAc(b1-6)GalNAc = target: GlcNAc(b1-6)GalNAc
# Procedure, shortened: as §1
# [16] = target: GlcNAc6S(b1-3)Gal(b1-4)GlcNAc
# Procedure, shortened: as §1
# Kdn(a2-3)Gal(b1-3)GalNAc = target: Kdn(a2-3)Gal(b1-3)GalNAc
# Procedure, shortened: as §1
# Kdn(a2-3)Gal(b1-3)GlcNAc = target: Kdn(a2-3)Gal(b1-3)GlcNAc
# Procedure, shortened: as §1
# Kdn(a2-3)Gal(b1-4)Glc = target: Kdn(a2-3)Gal(b1-4)Glc
# Procedure, shortened: as §1
# Kdn(a2-3)Gal(b1-4)GlcNAc = target: Kdn(a2-3)Gal(b1-4)GlcNAc
# Procedure, shortened: as §1
# [17] = target: Kdn(a2-3)Gal(b1-4)[Fuc(a1-3)]GlcNAc
# Procedure, shortened: as §1
# Kdn(a2-6)Gal(b1-4)GlcNAc = target: Kdn(a2-6)Gal(b1-4)GlcNAc
# Procedure, shortened: as §1
# [18] = target: Man(a1-2)Man(a1-2)Man(a1-3)Man
# Procedure, shortened: as §1
# [19] = target: Man(a1-2)Man(a1-2)Man(a1-6)[Man(a1-3)]Man
# Procedure, shortened: as §1
# Man(a1-2)Man(a1-3)Man = target: Man(a1-2)Man(a1-3)Man
# Procedure, shortened: as §1
# [20] = target: Man(a1-2)Man(a1-3)[Man(a1-2)Man(a1-6)]Man
# Procedure, shortened: as §1
# [21] = target: Man(a1-2)Man(a1-3)[Man(a1-2)Man(a1-6)]Man(a1-6)[Man(a1-2)Man(a1-2)Man(a1-3)]Man
# Procedure, shortened: as §1
# [22] = target: Man(a1-2)Man(a1-3)[Man(a1-2)Man(a1-6)]Man(a1-6)[Man(a1-2)Man(a1-2)Man(a1-3)]Man(b1-4)GlcNAc(b1-4)GlcNAc
# Procedure, shortened: as §1
# [23] = target: Man(a1-2)Man(a1-3)[Man(a1-6)]Man(a1-6)[Man(a1-2)Man(a1-3)]Man(b1-4)GlcNAc(b1-4)GlcNAc
# Procedure, shortened: as §1
# [24] = target: Man(a1-2)Man(a1-6)[Man(a1-3)]Man(a1-6)[Man(a1-2)Man(a1-2)Man(a1-3)]Man
# Procedure, shortened: as §1
# [25] = target: Man(a1-2)Man(a1-6)[Man(a1-3)]Man(a1-6)[Man(a1-2)Man(a1-2)Man(a1-3)]Man(b1-4)GlcNAc(b1-4)GlcNAc
# Procedure, shortened: as §1
# Man(a1-3)[Man(a1-6)]Man = target: Man(a1-3)[Man(a1-6)]Man
# Procedure, shortened: as §1
# [26] = target: Man(a1-3)[Man(a1-6)]Man(a1-6)[Man(a1-2)Man(a1-3)]Man(b1-4)GlcNAc(b1-4)GlcNAc
# Procedure, shortened: as §1
# [27] = target: Man(a1-3)[Man(a1-6)]Man(a1-6)[Man(a1-3)]Man
# Procedure, shortened: as §1
# [28] = target: Man(a1-3)[Man(a1-6)]Man(a1-6)[Man(a1-3)]Man(b1-4)GlcNAc(b1-4)GlcNAc
# Procedure, shortened: as §1
# [29] = target: Man(a1-3)[Man(a1-6)]Man(b1-4)GlcNAc(b1-4)GlcNAc
# Procedure, shortened: as §1
# [30] = target: Man(a1-3)[Man(a1-6)]Man(b1-4)GlcNAc(b1-4)[Fuc(a1-6)]GlcNAc
# Procedure, shortened: as §1
# Man(a1-6)Man = target: Man(a1-6)Man
# Procedure, shortened: as §1
# Man(b1-4)GlcNAc = target: Man(b1-4)GlcNAc
# Procedure, shortened: as §1
# MurNAc(b1-4)GlcNAc = target: MurNAc(b1-4)GlcNAc
# Procedure, shortened: as §1
# Neu5Ac(a2-3)Gal = target: Neu5Ac(a2-3)Gal
# Procedure, shortened: as §1
binder,measurement,setting,value
B1,glycan array binding signal (z-score),[1],0.164
same,glycan array binding signal (z-score),[2],-0.242
same,glycan array binding signal (z-score),[3],-0.105
same,glycan array binding signal (z-score),[4],-0.233
same,glycan array binding signal (z-score),[5],-0.083
same,glycan array binding signal (z-score),[6],-0.3
same,glycan array binding signal (z-score),GlcNAc(b1-3)GalNAc,-0.083
same,glycan array binding signal (z-score),GlcNAc(b1-3)Man,-0.364
same,glycan array binding signal (z-score),[7],-0.17
same,glycan array binding signal (z-score),[8],-0.212
same,glycan array binding signal (z-score),[9],-0.253
same,glycan array binding signal (z-score),[10],-0.346
same,glycan array binding signal (z-score),GlcNAc(b1-4)GlcNAc,-0.307
same,glycan array binding signal (z-score),[11],-0.256
same,glycan array binding signal (z-score),[12],0.044
same,glycan array binding signal (z-score),[13],-0.099
same,glycan array binding signal (z-score),[14],-0.1
same,glycan array binding signal (z-score),[15],0.169
same,glycan array binding signal (z-score),GlcNAc(b1-6)GalNAc,-0.16
same,glycan array binding signal (z-score),[16],0.027
same,glycan array binding signal (z-score),Kdn(a2-3)Gal(b1-3)GalNAc,-0.3
same,glycan array binding signal (z-score),Kdn(a2-3)Gal(b1-3)GlcNAc,-0.337
same,glycan array binding signal (z-score),Kdn(a2-3)Gal(b1-4)Glc,-0.218
same,glycan array binding signal (z-score),Kdn(a2-3)Gal(b1-4)GlcNAc,-0.213
same,glycan array binding signal (z-score),[17],-0.221
same,glycan array binding signal (z-score),Kdn(a2-6)Gal(b1-4)GlcNAc,-0.102
same,glycan array binding signal (z-score),[18],-0.151
same,glycan array binding signal (z-score),[19],-0.254
same,glycan array binding signal (z-score),Man(a1-2)Man(a1-3)Man,-0.146
same,glycan array binding signal (z-score),[20],0.093
same,glycan array binding signal (z-score),[21],0.008
same,glycan array binding signal (z-score),[22],-0.2
same,glycan array binding signal (z-score),[23],-0.209
same,glycan array binding signal (z-score),[24],-0.295
same,glycan array binding signal (z-score),[25],0.353
same,glycan array binding signal (z-score),Man(a1-3)[Man(a1-6)]Man,0.164
same,glycan array binding signal (z-score),[26],-0.285
same,glycan array binding signal (z-score),[27],-0.025
same,glycan array binding signal (z-score),[28],-0.183
same,glycan array binding signal (z-score),[29],-0.049
same,glycan array binding signal (z-score),[30],-0.031
same,glycan array binding signal (z-score),Man(a1-6)Man,0.047
same,glycan array binding signal (z-score),Man(b1-4)GlcNAc,0.068
same,glycan array binding signal (z-score),MurNAc(b1-4)GlcNAc,-0.209
same,glycan array binding signal (z-score),Neu5Ac(a2-3)Gal,-0.156
